Measured values from the RNAGym collection of RNA variant scans (doi:10.1093/nar/gkz1192).
Read counts are not given, so values of variants with three or more changes are uncertain.

B1: CPEB3 Ribozyme (parent)
chain: UAACAGGGGGCCACAGCAGAAGCGUUCACGUCGCAGCCCCUGUCAGAUUCUGGUGAAUCUGCGAAUUCUGCUGUAUAUCUC

Variants of: B1
Assay: self-cleavage, relative activity (ratio to wild type); higher = more cleavage; in vitro, sequencing
Procedure, shortened: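 Relative activity was defined as the cleaved/total read fraction for a variant divided by the same fraction for the unmutated ribozyme. CPEB3 self-cleaving ribozyme libraries were made by rounds of error-prone PCR, barcoded, and transcribed in vitro with T7 RNA polymerase for 5 hours at 37°C, and cleavage ran through transcription plus a 15 min DNase I step before EDTA. Illumina sequencing of template-switched reverse transcripts gave the reads, and DNA sequencing mapped the barcodes. Averages come from three batches, using variants with at least 5 reads.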

Q: For U25A U31A G52A U54C, which self-cleavage is on record?
A: 0.15

Q: Which self-cleavage does the source give for U25A U31A U60C A75U here?
A: 0.2

Q: With U25A U31C A56G A64G C71A as the variant, how does the self-cleavage read?
A: 0.32

Q: For U25A U31C A56U A64G, which self-cleavage is on record?
A: 0.17

Q: Which self-cleavage does the source give for U25A U31C G42A U51A A56G C68G U78C here?
A: 0.04

Q: With U25A U31C G46A as the variant, how does the self-cleavage read?
A: 0.19

Q: For U25A U31C U43G, which self-cleavage is on record?
A: 0.4

Q: For U25A U31C U43G A56G A57G A64G, which self-cleavage is on record?
A: 0.36

Q: Which self-cleavage does the source give for U25A U41A A64G here?
A: 0.11

Q: For U25A U41A G61C U74C, which self-cleavage is on record?
A: 0.29

Q: With U25A U41A U48C as the variant, how does the self-cleavage read?
A: 0.37

Q: Which self-cleavage does the source give for U25A U41C A45U U48C U54C here?
A: 0.13

Q: Which self-cleavage does the source give for U25A U41C A45U U51A U80C here?
A: 0.1

Q: With U25A U41C A56G as the variant, how does the self-cleavage read?
A: 0.25

Q: With U25A U41C A57G as the variant, how does the self-cleavage read?
A: 0.15

Q: Which self-cleavage does the source give for U25A U41C A64U here?
A: 0.21

Q: With U25A U41C U60A A65G C81U as the variant, how does the self-cleavage read?
A: 0

Q: Which self-cleavage does the source give for U25A U41C U72C here?
A: 0.19

Q: For U25A U41G A45G, which self-cleavage is on record?
A: 0.24

Q: Which self-cleavage does the source give for U25A U41G U51C U72C here?
A: 0.12

Q: Which self-cleavage does the source give for U25A U41G U78G here?
A: 0.11

Q: Which self-cleavage does the source give for U25A U43A A45G C79A here?
A: 0.31

Q: Which self-cleavage does the source give for U25A U43A U48C here?
A: 0.37

Q: Which self-cleavage does the source give for U25A U43A U67A here?
A: 0.07

Q: For U25A U43C A47G A57U G63U, which self-cleavage is on record?
A: 0.17

Q: For U25A U43C A56U U58C U66A G70A, which self-cleavage is on record?
A: 0.16

Q: Which self-cleavage does the source give for U25A U43C C59U here?
A: 0.21

Q: For U25A U43C C62A U67C A75G, which self-cleavage is on record?
A: 0.08

Q: With U25A U43C G53C U58C as the variant, how does the self-cleavage read?
A: 0.07

Q: Which self-cleavage does the source give for U25A U43C U49C A65G U80A here?
A: 0.12

Q: For U25A U43C U51A U54C A65G U76C, which self-cleavage is on record?
A: 0.16

Q: With U25A U43C U51C U78C as the variant, how does the self-cleavage read?
A: 0.2

Q: For U25A U43C U58C U66C, which self-cleavage is on record?
A: 0.08

Q: Which self-cleavage does the source give for U25A U43C U67G U78C here?
A: 0.1

Q: Which self-cleavage does the source give for U25A U43C U69C here?
A: 0.11

Q: With U25A U43G A45G as the variant, how does the self-cleavage read?
A: 0.24

Q: Which self-cleavage does the source give for U25A U48A A56G U60C here?
A: 0.45

Q: For U25A U48A A57U U69A, which self-cleavage is on record?
A: 0.1

Q: For U25A U48C G63A U66C U72C, which self-cleavage is on record?
A: 0.14

Q: Which self-cleavage does the source give for U25A U48C U51C U76A here?
A: 0.07

Q: For U25A U49A U69G, which self-cleavage is on record?
A: 0.09

Q: With U25A U49C A57G U67C as the variant, how does the self-cleavage read?
A: 0.34

Q: For U25A U49C U66A, which self-cleavage is on record?
A: 0.13

Q: For U25A U49C U67C U72A, which self-cleavage is on record?
A: 0.12

Q: Which self-cleavage does the source give for U25A U51A G52A A57U here?
A: 0.14

Q: For U25A U51A U54A A57G A65G U72A, which self-cleavage is on record?
A: 0.07

Q: With U25A U51C A65G U74C U76A as the variant, how does the self-cleavage read?
A: 0.16

Q: For U25A U51C U67A, which self-cleavage is on record?
A: 0.21

Q: With U25A U54A A56G as the variant, how does the self-cleavage read?
A: 0.54

Q: With U25A U54C A56C U67C as the variant, how does the self-cleavage read?
A: 0.08

Q: With U25A U54C A57G U60A as the variant, how does the self-cleavage read?
A: 0.14

Q: For U25A U54C A64U, which self-cleavage is on record?
A: 0.2

Q: For U25A U58C U67A A77G, which self-cleavage is on record?
A: 0.04

Q: Which self-cleavage does the source give for U25A U60C A64G here?
A: 0.15

Q: Which self-cleavage does the source give for U25A U60C U72A A75G here?
A: 0.13

Q: With U25A U60G A65G U67C as the variant, how does the self-cleavage read?
A: 0.12

Q: With U25A U69C U74C C79G as the variant, how does the self-cleavage read?
A: 0.06

Q: With U25A U72A A75G as the variant, how does the self-cleavage read?
A: 0.06

Q: For U25A U74C U80C, which self-cleavage is on record?
A: 0.52

Q: With U25A U74G A75G as the variant, how does the self-cleavage read?
A: 0.13

Q: With U25C A28C U31A as the variant, how does the self-cleavage read?
A: 0.22

Q: With U25C A28C U60C G70A as the variant, how does the self-cleavage read?
A: 0.14

Q: Which self-cleavage does the source give for U25C A28C U69C here?
A: 0.32

Q: Which self-cleavage does the source give for U25C A28G A35G U41A U49C U69C here?
A: 0.02

Q: For U25C A28G A45U U58C U72G, which self-cleavage is on record?
A: 0.02

Q: For U25C A28G A47G U49A U72A A77U U80C, which self-cleavage is on record?
A: 0.05

Q: For U25C A28G A56G A57G U67C, which self-cleavage is on record?
A: 0.12

Q: With U25C A28G C39U U51C G53A A65G as the variant, how does the self-cleavage read?
A: 0.1

Q: For U25C A28G C59A, which self-cleavage is on record?
A: 0.1

Q: Which self-cleavage does the source give for U25C A28G G30C U31C A47G here?
A: 0.17

Q: Which self-cleavage does the source give for U25C A28G G33A A45U C81A here?
A: 0.11

Q: For U25C A28G G52C U78C, which self-cleavage is on record?
A: 0.05

Q: For U25C A28G G53U, which self-cleavage is on record?
A: 0.18

Q: With U25C A28G G55A A64G as the variant, how does the self-cleavage read?
A: 0.2

Q: With U25C A28G U31A U51C C62U as the variant, how does the self-cleavage read?
A: 0.11

Q: Which self-cleavage does the source give for U25C A28G U41A C62U here?
A: 0.1

Q: With U25C A28G U41A U66C as the variant, how does the self-cleavage read?
A: 0.07

Q: With U25C A28G U43C as the variant, how does the self-cleavage read?
A: 0.4

Q: For U25C A28G U51C, which self-cleavage is on record?
A: 0.07

Q: With U25C A28G U54A G63C U80A as the variant, how does the self-cleavage read?
A: 0

Q: For U25C A28G U58A A77G, which self-cleavage is on record?
A: 0.16

Q: Which self-cleavage does the source give for U25C A28G U78A here?
A: 0.23

Q: With U25C A28G U80C as the variant, how does the self-cleavage read?
A: 0.36

Q: With U25C A28U A45C U49C A65G U74C as the variant, how does the self-cleavage read?
A: 0
